Screen size: about 310,000 compounds; about 14,000 (4.5%) showed an effect of 50% or more. Effects have a minus sign here. Some of the results follow.
The compounds below were run against human ether-à-go-go-related gene (hERG) potassium channel (human, UniProt Q12809) (assay: primary screen, population patch clamp on CHO cells stably expressing hERG).
Chain of human ether-à-go-go-related gene (hERG) potassium channel (Q12809 whole entry, looked up): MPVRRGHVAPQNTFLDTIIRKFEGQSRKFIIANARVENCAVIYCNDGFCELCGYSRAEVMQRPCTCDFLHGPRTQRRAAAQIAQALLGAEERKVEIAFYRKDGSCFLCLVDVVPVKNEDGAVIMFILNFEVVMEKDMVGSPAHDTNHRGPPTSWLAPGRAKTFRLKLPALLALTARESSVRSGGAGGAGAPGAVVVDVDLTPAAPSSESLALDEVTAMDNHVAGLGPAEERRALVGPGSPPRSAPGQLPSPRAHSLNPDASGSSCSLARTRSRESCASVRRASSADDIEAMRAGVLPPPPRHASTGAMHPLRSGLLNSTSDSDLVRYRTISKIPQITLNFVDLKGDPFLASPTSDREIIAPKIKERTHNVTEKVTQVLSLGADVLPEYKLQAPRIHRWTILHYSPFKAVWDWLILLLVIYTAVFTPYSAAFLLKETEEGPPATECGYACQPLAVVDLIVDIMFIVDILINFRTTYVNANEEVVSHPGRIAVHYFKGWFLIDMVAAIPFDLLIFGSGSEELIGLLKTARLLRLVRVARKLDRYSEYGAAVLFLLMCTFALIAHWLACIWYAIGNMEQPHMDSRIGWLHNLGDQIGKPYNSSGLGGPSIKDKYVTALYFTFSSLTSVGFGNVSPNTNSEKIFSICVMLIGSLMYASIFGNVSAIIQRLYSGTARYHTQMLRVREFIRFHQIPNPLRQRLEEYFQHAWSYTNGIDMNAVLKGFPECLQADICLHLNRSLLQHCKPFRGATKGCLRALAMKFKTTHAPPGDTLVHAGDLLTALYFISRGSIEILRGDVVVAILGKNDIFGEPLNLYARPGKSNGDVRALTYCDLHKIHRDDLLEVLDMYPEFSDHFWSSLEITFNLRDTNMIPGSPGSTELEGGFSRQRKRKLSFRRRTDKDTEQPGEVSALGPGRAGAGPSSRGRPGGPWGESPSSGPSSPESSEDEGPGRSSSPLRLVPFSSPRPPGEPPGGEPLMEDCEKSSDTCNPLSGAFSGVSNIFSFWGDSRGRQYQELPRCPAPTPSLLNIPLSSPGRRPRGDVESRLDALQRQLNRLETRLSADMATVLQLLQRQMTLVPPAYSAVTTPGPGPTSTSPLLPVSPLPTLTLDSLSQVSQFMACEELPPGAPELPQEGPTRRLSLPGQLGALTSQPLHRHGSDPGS
`Cc1ccc(CN2C(=O)C(Cc3ccccc3)Nc3ncnc(N4CCN(c5ccccc5)CC4)c32)cc1.O=C(O)C(F)(F)F` (stereo not shown) was tested, and the “hERG current change (%, negative = inhibition) at 10uM” value was 9.85%. `CC(=O)CSc1ncnc2scc(-c3ccc(F)cc3)c12` was tested, and the “hERG current change (%, negative = inhibition) at 10uM” value was 10.7%. `CCOc1ccc(NC(=O)CS(=O)(=O)c2cn(C)c3ccccc23)cc1` was tested, and the “hERG current change (%, negative = inhibition) at 10uM” value was 15.2%. For `CCS(=O)(=O)Nc1cccc(-c2nc3cccnc3s2)c1C`, the “hERG current change (%, negative = inhibition) at 10uM” value was 6.04%. In the case of `Cc1cnc(C(=O)OC(C(=O)c2c[nH]c3ccccc23)c2ccccc2)cn1` (stereo not shown), the “hERG current change (%, negative = inhibition) at 10uM” value was -25.3%. With `CCOC(=O)c1nnc2cc(-c3ccc(Br)cc3)nn2c1C` the “hERG current change (%, negative = inhibition) at 10uM” value was 4%. With `CCNc1nc(NCC)nc(C(=O)OCCO)n1` the “hERG current change (%, negative = inhibition) at 10uM” value was 11.8%. In the case of `Cc1cc(C)cc(-n2nnc(C(=O)NCc3ccccc3Cl)c2N)c1`, the “hERG current change (%, negative = inhibition) at 10uM” value was 7.98%. With `CCCCn1c(O)c(C(C)=Nc2ccc(C(=O)O)cc2)c(=O)[nH]c1=O` the “hERG current change (%, negative = inhibition) at 10uM” value was 12.1%. With `COc1ccc(CNC(=O)C2CCN(S(=O)(=O)c3ccc(SC)cc3)CC2)cc1` the “hERG current change (%, negative = inhibition) at 10uM” value was 15.4%. In the case of `CCC1(C)Cc2c(C#N)c(SC)nc(N3CCOCC3)c2CO1` (stereo not shown), the “hERG current change (%, negative = inhibition) at 10uM” value was -28.9%. With `CCC(=O)Nc1sc2c(c1C#N)CCCCC2` the “hERG current change (%, negative = inhibition) at 10uM” value was 0.0585%. With `COc1cc(NC(=O)C2CC(c3ccccc3O)=NO2)c(OC)cc1Cl` (stereo not shown) the “hERG current change (%, negative = inhibition) at 10uM” value was 13.8%. With `COc1cccc(CN2CCSCC2)c1` the “hERG current change (%, negative = inhibition) at 10uM” value was 8.81%. `CCOCc1nnc(NC(=O)C2CCN(C(=O)C3CC(=O)N(c4ccc(C)cc4)C3)CC2)s1` (stereo not shown) was tested, and the “hERG current change (%, negative = inhibition) at 10uM” value was 7.93%. With `Cc1noc(C)c1CSCC(=O)OCC(=O)NC1CCCCC1` the “hERG current change (%, negative = inhibition) at 10uM” value was 12.5%. In the case of `COc1cc2cc(C(c3nnnn3C(C)(C)C)N3CCc4ccccc4C3)c(=O)[nH]c2cc1OC` (stereo not shown), the “hERG current change (%, negative = inhibition) at 10uM” value was -23.2%. In the case of `COCCC(=O)N1CCC(Oc2ccc(C(=O)NC(C)CCn3cccn3)cc2)CC1` (stereo not shown), the “hERG current change (%, negative = inhibition) at 10uM” value was 31.8%. In the case of `COC(=O)c1ccc([N+](=O)[O-])c(CS(=O)(=O)c2ccc(Cl)cc2)c1`, the “hERG current change (%, negative = inhibition) at 10uM” value was -29.6%. `CC(c1ccccc1)N1C(=O)C2C3CCC(C3)C2C1=O` (stereo not shown) was tested, and the “hERG current change (%, negative = inhibition) at 10uM” value was 11.1%. `COc1cc(/C=N/n2cnnc2-n2nc(C)cc2C)cc([N+](=O)[O-])c1O` was tested, and the “hERG current change (%, negative = inhibition) at 10uM” value was -20.3%. For `O=C(O)C1C2C=CC(O2)C1C(=O)NCc1ccc2c(c1)OCO2` (stereo not shown), the “hERG current change (%, negative = inhibition) at 10uM” value was 15.3%. With `CCOC(=O)C1CCCN(C(=O)c2ccc3oc(Cc4ccccc4)nc3c2)C1` (stereo not shown) the “hERG current change (%, negative = inhibition) at 10uM” value was -42.6%. In the case of `COCCCNC(=O)c1ccc([N+](=O)[O-])c(Cl)c1`, the “hERG current change (%, negative = inhibition) at 10uM” value was -0.841%. For `Cc1ccc(NC(=O)Cn2nc(C)cc2C)cc1`, the “hERG current change (%, negative = inhibition) at 10uM” value was 11.6%. In the case of `COC(=O)c1ccc(C23CC4(C2)[C@H](CN(Cc2ccc(-c5ccccc5)cc2)[C@@H]4c2ccccc2)C3c2ccc(Cl)nc2)cc1` (stereo partly shown), the “hERG current change (%, negative = inhibition) at 10uM” value was -5.37%. In the case of `CC1(C)C(=O)Nc2ccccc2N1C(=O)COC(=O)Cc1c(F)cccc1Cl`, the “hERG current change (%, negative = inhibition) at 10uM” value was -50.1%. In the case of `O=S(=O)(Nc1nc2ccccc2nc1N1CCN(c2ccccc2)CC1)c1ccc(F)cc1`, the “hERG current change (%, negative = inhibition) at 10uM” value was 9.01%. For `Cc1ccccc1C(=O)/C=C1\NC(=O)CS1`, the “hERG current change (%, negative = inhibition) at 10uM” value was -0.633%. `O=C(Nc1ccc2c(c1)CCC2)C1CCCN(c2ncccn2)C1` (stereo not shown) was tested, and the “hERG current change (%, negative = inhibition) at 10uM” value was -2.53%. With `COCCNC(=O)c1ccc(CS(=O)(=O)c2ccc(C)cc2)o1` the “hERG current change (%, negative = inhibition) at 10uM” value was -19.7%. For `COc1ccc(NC(=O)Nc2ccccn2)cc1OC`, the “hERG current change (%, negative = inhibition) at 10uM” value was 25.6%. With `CCn1cc(CN2CCN(CCc3ccccc3)C(CCO)C2)c(C)n1` (stereo not shown) the “hERG current change (%, negative = inhibition) at 10uM” value was -31%. In the case of `Cc1cc(=O)[nH]c(NCCO)n1`, the “hERG current change (%, negative = inhibition) at 10uM” value was 20.2%. For `CCCc1ccc(OCCNC(=O)c2ccco2)cc1`, the “hERG current change (%, negative = inhibition) at 10uM” value was -23.9%. In the case of `Cc1ccc(Cl)cc1N1CCN(CC(O)COCc2ccco2)CC1.O=C(O)C(=O)O` (stereo not shown), the “hERG current change (%, negative = inhibition) at 10uM” value was -73.1%. With `Cc1ccc(/C=C2\Oc3c(ccc(O)c3CN3CCN(C)CC3)C2=O)cc1` the “hERG current change (%, negative = inhibition) at 10uM” value was -15%. For `O=C(OCCCN=C1NS(=O)(=O)c2ccccc21)c1ccc(F)cc1`, the “hERG current change (%, negative = inhibition) at 10uM” value was -19.2%. With `Cc1nc2ccccc2c(=O)n1-c1ccc(NS(=O)(=O)c2ccc(F)cc2F)cc1` the “hERG current change (%, negative = inhibition) at 10uM” value was -33.2%. In the case of `CC(C)(C)OC(=O)CNC(=O)c1nc[nH]c1C(=O)N1CCc2ccccc2C1`, the “hERG current change (%, negative = inhibition) at 10uM” value was -0.634%. For `O=C(COc1ccc2c(c1)OCO2)Nc1ccc2c(c1)oc1ccccc12`, the “hERG current change (%, negative = inhibition) at 10uM” value was 8.12%. `CCN1C(=O)C(CC(=O)Nc2ccc(OC)cc2)N(CCc2ccc(OC)cc2)C1=S` (stereo not shown) was tested, and the “hERG current change (%, negative = inhibition) at 10uM” value was -1.17%. `COC(=O)CC1C(=O)NCCN1C(=O)CSc1nc2ccccc2c(=O)n1CC(C)C` (stereo not shown) was tested, and the “hERG current change (%, negative = inhibition) at 10uM” value was -10.2%. `O=C(NC1CCN(Cc2ccc(Cl)cc2Cl)CC1)c1ccccc1` was tested, and the “hERG current change (%, negative = inhibition) at 10uM” value was -53.9%. `O=C(O)/C=C\C(=O)Nc1cc(O)ccc1[N+](=O)[O-]` was tested, and the “hERG current change (%, negative = inhibition) at 10uM” value was 8.77%. With `Cc1ccc(C(=O)CCC(=O)OCC(=O)NNC(=O)c2ccc([N+](=O)[O-])cc2)cc1` the “hERG current change (%, negative = inhibition) at 10uM” value was -43.3%. `COc1cccc(OCC(=O)NNC(=S)Nc2ccc(Cl)cc2Cl)c1` was tested, and the “hERG current change (%, negative = inhibition) at 10uM” value was 10.3%. In the case of `Cc1ccc(C(=O)NNC(=O)c2ccc3ccccc3c2O)cc1`, the “hERG current change (%, negative = inhibition) at 10uM” value was -24.4%. `CCCNC(=O)C(Cc1ccccc1)NS(=O)(=O)c1ccc2c(c1)c(=O)n(C)c(=O)n2C` (stereo not shown) was tested, and the “hERG current change (%, negative = inhibition) at 10uM” value was -0.669%. With `CC(=O)Nc1ccc(S(=O)(=O)Nc2cccc(NC(=O)C(C)(C)C)c2)cc1` the “hERG current change (%, negative = inhibition) at 10uM” value was 19.5%. `N#Cc1ccsc1NC(=O)CN1C(=O)NC2(CCCC2)C1=O` was tested, and the “hERG current change (%, negative = inhibition) at 10uM” value was -5.8%. For `Cc1cc(C)c2[nH]c(C(=O)N3CCC(n4nccc4NC(=O)C4CC4)CC3)c(C)c2c1`, the “hERG current change (%, negative = inhibition) at 10uM” value was -44.6%. `O=C(O)CC(CC(=O)Nc1ccc2ccccc2n1)c1ccccc1` (stereo not shown) was tested, and the “hERG current change (%, negative = inhibition) at 10uM” value was 9.58%. With `COc1ccc(C)cc1NC(=O)C1CCCN(S(=O)(=O)c2ccc3[nH]c(=O)ccc3c2)C1` (stereo not shown) the “hERG current change (%, negative = inhibition) at 10uM” value was -25.2%. In the case of `Cc1cccc(-n2ncc3c(N(C)C4CCCCC4)ncnc32)c1`, the “hERG current change (%, negative = inhibition) at 10uM” value was -9.07%.

Reference: article PMC4336329 (PLoS ONE, 2015)
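Further: peak tail current of the secondary pulse compared with the same well before compound.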
